Reference: the supplement of paper PMC8728848
Some of the results follow.

Experiments:
Experiment in all cases: glycan array binding signal (z-score within array); higher = stronger binding
Settings in all cases: glycan notation: IUPAC condensed, linker removed
[1] = target: Fuc(a1-2)[GalNAc(a1-3)]Gal(b1-3)GlcNAc(b1-6)GalNAc
In short: (§1)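 Arrays were curated from the Consortium for Functional Glycomics database, 3228 in total, and kept only where the protein sequence was available. Binding is expressed as a within-array Z-score. This score was averaged across arrays of the same protein sequence at different concentrations or buffers and across linkers, and negative values can be read as non-binding.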

[2] = target: Fuc(a1-2)[GalNAc(a1-3)]Gal(b1-4)Glc
In short: as §1

[3] = target: Fuc(a1-2)[GalNAc(a1-3)]Gal(b1-4)GlcNAc
In short: as §1

[4] = target: Fuc(a1-2)[GalNAc(a1-3)]Gal(b1-4)GlcNAc(b1-2)Man
In short: as §1

[5] = target: Fuc(a1-2)[GalNAc(a1-3)]Gal(b1-4)GlcNAc(b1-2)Man(a1-3)[Fuc(a1-2)[GalNAc(a1-3)]Gal(b1-4)GlcNAc(b1-2)Man(a1-6)]Man(b1-4)GlcNAc(b1-4)GlcNAc
In short: as §1

[6] = target: Fuc(a1-2)[GalNAc(a1-3)]Gal(b1-4)GlcNAc(b1-2)Man(a1-3)[Fuc(a1-2)[GalNAc(a1-3)]Gal(b1-4)GlcNAc(b1-2)Man(a1-6)]Man(b1-4)GlcNAc(b1-4)[Fuc(a1-6)]GlcNAc
In short: as §1

[7] = target: Fuc(a1-2)[GalNAc(a1-3)]Gal(b1-4)GlcNAc(b1-3)Gal(b1-4)GlcNAc
In short: as §1

[8] = target: Fuc(a1-2)[GalNAc(a1-3)]Gal(b1-4)GlcNAc(b1-3)Gal(b1-4)GlcNAc(b1-3)Gal(b1-4)GlcNAc
In short: as §1

[9] = target: Fuc(a1-2)[GalNAc(a1-3)]Gal(b1-4)GlcNAc(b1-3)GalNAc
In short: as §1

[10] = target: Fuc(a1-2)[GalNAc(a1-3)]Gal(b1-4)GlcNAc(b1-3)[Fuc(a1-2)[GalNAc(a1-3)]Gal(b1-4)GlcNAc(b1-6)]GalNAc
In short: as §1

[11] = target: Fuc(a1-2)[GalNAc(a1-3)]Gal(b1-4)GlcNAc(b1-6)GalNAc
In short: as §1

[12] = target: Fuc(a1-2)[GalNAc(a1-3)]Gal(b1-4)[Fuc(a1-3)]GlcNAc
In short: as §1

[13] = target: Fuc(a1-2)[GalNAc(a1-3)]Gal(b1-4)[Fuc(a1-3)]GlcNAc(b1-3)GalNAc
In short: as §1

[14] = target: Fuc(a1-2)[GalNAc(a1-4)]Gal(b1-4)GlcNAc
In short: as §1

[15] = target: Fuc(a1-2)[GalNAc(b1-3)]Gal
In short: as §1

Fuc(a1-3)GlcNAc = target: Fuc(a1-3)GlcNAc
In short: as §1

[16] = target: Fuc(a1-3)[Gal(b1-4)]Glc6S
In short: as §1

[17] = target: Fuc(a1-3)[Gal(b1-4)]GlcNAc
In short: as §1

[18] = target: Fuc(a1-3)[Gal(b1-4)]GlcNAc(b1-2)Man
In short: as §1

[19] = target: Fuc(a1-3)[Gal(b1-4)]GlcNAc(b1-2)Man(a1-3)[Fuc(a1-3)[Gal(b1-4)]GlcNAc(b1-2)Man(a1-6)]Man(b1-4)GlcNAc(b1-4)GlcNAc
In short: as §1

[20] = target: Fuc(a1-3)[Gal(b1-4)]GlcNAc(b1-2)Man(a1-3)[Fuc(a1-3)[Gal(b1-4)]GlcNAc(b1-2)Man(a1-6)]Man(b1-4)GlcNAc(b1-4)[Fuc(a1-6)]GlcNAc
In short: as §1

[21] = target: Fuc(a1-3)[Gal(b1-4)]GlcNAc(b1-3)Gal(b1-3)[Fuc(a1-4)]GlcNAc
In short: as §1

[22] = target: Fuc(a1-3)[Gal(b1-4)]GlcNAc(b1-3)Gal(b1-4)[Fuc(a1-3)]GlcNAc
In short: as §1

[23] = target: Fuc(a1-3)[Gal(b1-4)]GlcNAc(b1-3)Gal(b1-4)[Fuc(a1-3)]GlcNAc(b1-3)Gal(b1-4)[Fuc(a1-3)]GlcNAc
In short: as §1

[24] = target: Fuc(a1-3)[Gal(b1-4)]GlcNAc(b1-3)GalNAc
In short: as §1

[25] = target: Fuc(a1-3)[Gal(b1-4)]GlcNAc(b1-6)GalNAc
In short: as §1

[26] = target: Fuc(a1-3)[Gal(b1-4)]GlcNAc(b1-6)[Gal(b1-3)GlcNAc(b1-3)]Gal(b1-4)Glc
In short: as §1

[27] = target: Fuc(a1-3)[Gal(b1-4)]GlcNAc6S
In short: as §1

[28] = target: Fuc(a1-3)[Gal3S(b1-4)]Glc
In short: as §1

[29] = target: Fuc(a1-3)[Gal3S(b1-4)]GlcNAc
In short: as §1

[30] = target: Fuc(a1-3)[Gal3S(b1-4)]GlcNAc6S
In short: as §1

[31] = target: Fuc(a1-3)[GalNAc(b1-4)]GlcNAc
In short: as §1

[32] = target: Fuc(a1-3)[GalNAc(b1-4)]GlcNAc6S
In short: as §1

Fuc(a1-4)GlcNAc = target: Fuc(a1-4)GlcNAc
In short: as §1

Fuc(b1-3)GlcNAc = target: Fuc(b1-3)GlcNAc
In short: as §1

Gal(a1-2)Gal = target: Gal(a1-2)Gal
In short: as §1

Gal(a1-3)Gal = target: Gal(a1-3)Gal
In short: as §1

B1: Epa3to1 (Candida glabrata) (protein)
chain: MGSSHHHHHHSSGLVPRGSHMKRELSSQNPFGYPIGCSPQDVAIIPGLTMELYSYPIVSGTPPNCYDASYVDPEYPRTGYLKRKMVGKSTGVTGNLNYKYSVEKACMVKYGNLPAGYNYNEPLTVSNFTMILYGYFKAQTTGLHTFFVNADDLLYINFGAGNAFDCCKREDSKTKLGEYVAYDIWHVDSSKNKVSLFLEKDLYYPIRMFFNNREYDSSLDLSFSVNGATDQISDFSGYLYSVPDQPDTCPAHIGYDTTCR
[1]
  glycan array binding signal (z-score): -0.505
[2]
  glycan array binding signal (z-score): -0.333
[3]
  glycan array binding signal (z-score): -0.35
[4]
  glycan array binding signal (z-score): -0.541
[5]
  glycan array binding signal (z-score): 0.877
[6]
  glycan array binding signal (z-score): 1.09
[7]
  glycan array binding signal (z-score): -0.209
[8]
  glycan array binding signal (z-score): 0.51
[9]
  glycan array binding signal (z-score): -0.651
[10]
  glycan array binding signal (z-score): 0.258
[11]
  glycan array binding signal (z-score): -0.661
[12]
  glycan array binding signal (z-score): -0.297
[13]
  glycan array binding signal (z-score): -0.295
[14]
  glycan array binding signal (z-score): -1.24
[15]
  glycan array binding signal (z-score): 0.203
Fuc(a1-3)GlcNAc
  glycan array binding signal (z-score): -0.177
[16]
  glycan array binding signal (z-score): 0.568
[17]
  glycan array binding signal (z-score): -0.202
[18]
  glycan array binding signal (z-score): -0.392
[19]
  glycan array binding signal (z-score): -0.581
[20]
  glycan array binding signal (z-score): 0.093
[21]
  glycan array binding signal (z-score): -0.373
[22]
  glycan array binding signal (z-score): -0.397
[23]
  glycan array binding signal (z-score): -0.177
[24]
  glycan array binding signal (z-score): 0.211
[25]
  glycan array binding signal (z-score): -0.714
[26]
  glycan array binding signal (z-score): 0.125
[27]
  glycan array binding signal (z-score): 0.794
[28]
  glycan array binding signal (z-score): -0.326
[29]
  glycan array binding signal (z-score): -0.319
[30]
  glycan array binding signal (z-score): 0.359
[31]
  glycan array binding signal (z-score): -0.148
[32]
  glycan array binding signal (z-score): -0.498
Fuc(a1-4)GlcNAc
  glycan array binding signal (z-score): 0.771
Fuc(b1-3)GlcNAc
  glycan array binding signal (z-score): -0.035
Gal(a1-2)Gal
  glycan array binding signal (z-score): -0.322
Gal(a1-3)Gal
  glycan array binding signal (z-score): 1.67
